Reference: the supplement of paper PMC4466236
The full ranking holds about 33,000 sequences; the median of “E-score (dimensionless, -0.5 to 0.5)” is about -0.058, and the highest 2% start at about 0.35. The list shows a part of the results.

system: MvaT; test: PBM 8-mer E-score (mean of HK and ME arrays) (E-score (dimensionless, -0.5 to 0.5)); higher = stronger relative binding preference; most listed sequences are background and not binding sites
How it was run: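 Reported values are rank-based E-scores, taken as the mean of two universal arrays and parsed with a custom script. Each 8-mer score falls between -0.5 and 0.5. The arrays, ME and HK, were double-stranded 60-mers with a constant 25-mer primer region and a variable 35-mer region covering all 8-mers. They were probed, by an earlier protocol, with full-length P. aeruginosa MvaT carrying an N-terminal glutathione S-transferase fusion.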

Sequence	PBM 8-mer E-score
GACTTATA	0.312
GCATTGTA	0.129
ATCTCGGA	0.0606
AAATGCGA	0.0325
CGGGCTTC	-0.156
ACAGGAAC	-0.0162
TTCATAAA	0.238
GGCGACGA	-0.0969
CCGCCTCG	-0.207
ACCCACGG	-0.125
AGGTTGTA	0.172
ACGTGGCA	-0.131
TCTGTTCA	-0.0142
CTATAGGA	-0.0735
ATCCTCCA	-0.167
ACGACTAC	-0.0594
GCTGTGAC	-0.182
CGATTGAG	-0.0913
ACTATGAG	0.0273
GAATTATA	0.374
CTACTACA	0.0609
CAACAGTG	-0.069
ACACCCCA	-0.231
GGAAGAAC	-0.162
AATGTCGA	0.00125

Sequence	PBM 8-mer E-score
CGTTCGAG	-0.179
ACCACGGC	-0.133
CGACGACA	-0.0109
AGGAGTCA	-0.22
GCAATACC	0.186
CCTAAGCG	-0.313
GCTGGTGA	-0.107
GCGACCTA	-0.0985
AGGACAAC	-0.0385
ATAAAAGG	0.119
GAAATTTA	0.227
AGTCCAAG	0.0301
TCTATTAA	0.285
GGAAAGAC	-0.0634
TCATCCGA	-0.0994
CCTCCAAC	-0.207
ACGATATA	0.328
CACAGAAG	-0.0636
ACATGCTC	-0.105
ATATAAGC	0.311
TAATGGGA	0.0668
TAGCAGCA	-0.0705
CCGACGCG	-0.268
CCGTGCCA	-0.177
CACGAAAC	-0.0556

Sequence	PBM 8-mer E-score
GGCAAAAC	-0.049
AGTTGGTC	0.0575
ATTCGAAA	0.195
GCCGGCAC	-0.0824
GGATGCAC	-0.17
GGGGCCAC	-0.233
CAAATCGC	0.0696
GAGGGACC	-0.31
CTTAAGTC	0.00473
ACGCTCGG	-0.166
AACGCCCT	-0.0945
CGGAGGAG	-0.364
CAACAGCG	-0.0867
CCGAACCG	-0.193
AGCGACAT	-0.0824
ATTATACA	0.388
CAAGGAGA	-0.135
AAAACGAT	0.0424
CTTGCGGA	-0.0364
ATGTGTGC	-0.0274
CATAACGA	0.141
TAGTGCAA	0.114
CGCAATAA	0.241
GGACCGAA	-0.195
AAGGGAAC	-0.113

Sequence	PBM 8-mer E-score
ACGGCCGT	-0.184
ATCTAAGA	-0.0492
ACGTAACA	0.201
ATTACAGG	0.0088
ATGACAGA	-0.126
GTTAGCCA	-0.043
AACTACGT	0.0749
ACATATAA	0.446
CGATTGGA	-0.184
GTCGTCAA	-0.0669
GAATATAC	0.298
AATCTCGT	-0.019
CCTCACAA	-0.0216
TAAAAATA	0.3
ATGAAGTA	0.0322
AGTTCAGC	0.047
AACAACAG	0.0444
CAAGGACA	-0.0273
ATATCTTG	0.292
ACTATAAA	0.316
GGGCACTA	-0.278
AATCGACG	-0.0214
CGTATTGA	0.0844
AAGAATGC	0.0322
ACCCTCCG	-0.234

Sequence	PBM 8-mer E-score
ACCGGACG	-0.224
CTGGTAGC	-0.329
CATAGTCG	-0.138
CGTCAAAA	0.119
ATATGGAA	0.278
GTGGTAAC	-0.165
AGCGCTTG	-0.127
CGCGCCCA	-0.221
TAACTTAA	0.406
TATCAACA	0.191
ACGGCTAA	-0.0612
GCAGTCGA	-0.223
GGCGGTGA	-0.0826
ACCTTTAC	0.074
CACGAGTG	-0.137
GAAATAAC	0.3
AACAGTGC	0.0807
GAGACAAA	-0.0765
CTTAATAA	0.385
ACAGAAAG	-0.0384
ATATGCAT	0.257
CAGGTCCC	-0.296
AGCACATG	-0.0899
GTATAGTA	0.233
CTCAAAGA	0.0505

Sequence	PBM 8-mer E-score
AGAGTGTC	-0.116
ATACCTAC	0.122
CCAGCTCC	-0.306
GAATTGCA	0.0683
AGACTGCG	-0.139
GATGACCC	-0.158
ACTCGAAC	0.0239
AAGTTTAC	0.157
TATTCTGA	0.132
CTATGGAG	-0.194
ACACCGGG	0.0263
AGACTGGG	-0.149
GCTTGAGA	-0.222
AGTACGGC	-0.141
ATAGTTTA	0.35
CTAGACGA	-0.169
CAAGGCGC	-0.221
AAAATGCG	0.119
GTCAATGA	0.0467
CTGAGATA	0.0581
ACTGAGCT	0.00939
AAAGACTT	0.158
GGGTGCAA	-0.0874
TAAAGATA	0.307
GGGAAAGA	-0.088

Sequence	PBM 8-mer E-score
ACGCTAGA	-0.141
ACCGAGGA	-0.326
TAGTGCCA	0.0464
CTTCACTA	-0.0225
ACACCGGC	-0.133
CGACTGTA	-0.0808
AAGCAGTC	-0.037
TATCCTAA	0.149
TAGTAAAA	0.315
ATCAAGTA	0.105
CCATACGA	-0.0225
ACAATCTG	0.0542
AGTATGTA	0.254
GGCGCTGA	-0.235
ACATGTCG	-0.0173
ATCATGGC	-0.143
CCGCCACG	-0.292
CACCGTTC	-0.144
ACTATGGG	-0.0441
ACTTGGTC	-0.0769
GTTTTCAA	0.148
GGAGCATA	-0.0616
ACTGCCAC	0.0158
AAGCATAC	0.0103
AGTCGTCC	-0.138

Sequence	PBM 8-mer E-score
CATACAGG	-0.0244
AGATGTAA	0.178
CCCCTGAG	-0.318
ATAAAGCA	0.157
ATATCAAG	0.211
CGGTCCAA	-0.0312
CTATCATC	0.0196
ACTGAGGG	-0.144
CGTGATCA	-0.137
AGGAACTA	0.111
ATGCCAGG	-0.109
ATAGGAAG	-0.0487
TCCACGGA	-0.125
ATATGCCC	0.127
AATCGTTA	0.12
GTTTTGAA	0.149
GGCGGTAA	0.0073
ATTAGGAG	0.0285
CCGATAAC	0.0959
ACAGTGAT	0.174
AATGCGGG	-0.119
ATGGAAGC	-0.192
CAGACATC	-0.079
GGCGTACC	-0.259
CCAAGTGA	-0.17

Sequence	PBM 8-mer E-score
ATCGCACC	-0.0834
AAGGTTCC	-0.201
CGGAAAGC	-0.192
CATAGATA	0.0663
TTCGCGAA	-0.0337
TCGATACA	0.0965
AAACTTAG	0.225
ATCTGCCC	-0.268
GTATTAAA	0.313
CAGGCTGC	-0.123
CCTAACAA	0.0562
CATCGCTC	-0.227
GGGTCCGA	-0.293
TAACGGTA	0.204
TACTTTGA	0.226
GGATCGCA	-0.168
CCAGGAGA	-0.165
CATGGAGA	-0.061
CCTGATAA	0.139
CCCCTAAA	-0.147
CGTCTCTA	-0.163
ATATGCTA	0.256
GCAAATAA	0.325
AACCGTCA	-0.0936
CTGGCGAC	-0.189

Sequence	PBM 8-mer E-score
AACCTTCG	-0.219
TTGTCAAA	0.147
GTACTCAC	-0.117
ATTCCCAG	-0.0249
CCTTCAAA	-0.128
AAGTAAAG	0.234
TAGGTAGA	-0.0321
CTCCGATA	-0.118
AGTTGTAA	0.331
ATTTTATA	0.366
CCGGTGAC	-0.199
ACTAGCAC	-0.126
ATGGTGAG	0.0089
GACCAGTC	-0.128
AGGACAGA	-0.179
GCTTCTAC	-0.0639
AGCAATGG	-0.0818
CTTGAATA	0.146
ACGCTGCT	-0.0865
GAACTAGA	0.00473
GGAGGAGA	-0.298
CAAATTGC	0.126
CCTCCCAA	-0.142
ACCCTCGT	-0.236
GGCTAGTA	-0.0824

Sequence	PBM 8-mer E-score
AGTTAGGA	0.17
ACTTCCCG	-0.0846
ACGTATAC	0.136
CTTTCCAC	0.0451
AATTGCGC	0.159
CATGGTAA	0.108
AGTTAGTC	0.141
ACGCAAGT	-0.0978
AGGAATGA	-0.0938
GTGCGACA	-0.00395
CACTTCCG	0.0768
CGTATCGA	-0.147
CGTGGGCA	-0.277
AACATTGA	0.167
CCACTCGA	-0.278
CGTGAGAA	0.0476
CGCGGGAC	-0.281
CATGGCAC	-0.112
CCGGTTAG	-0.0685
CGGCGCAG	-0.0768
ACCCTCAT	-0.0973
AGTACCAC	-0.0361
GCTAGTGA	-0.23
GCCGATAC	-0.166
CGAAATGC	-0.0574

Sequence	PBM 8-mer E-score
CACGCATC	-0.154
AACGAGTG	-0.0643
TAACAGGA	0.223
ATACTCCG	0.125
TACTGTCA	0.0629
AGGATTCA	-0.067
CAACAATA	0.289
ACCCCCCT	-0.302
CGCCTAAC	-0.126
CTGGAGTC	-0.179
CTCCAAGA	-0.0889
CTACCGAA	-0.0593
ATGCACTC	-0.108
ACAGATAG	-0.0481
AACTTCTC	0.218
CCGATTTC	-0.0956
CCCCGCCC	-0.247
ATACCAAA	0.243
AACAGTAT	0.235
ACTTATGG	0.206
CCATTGAG	-0.216
GCTGGGTA	-0.0347
CTTGAGAA	-0.0449
GGAGTTTA	0.164
AACGTTCC	-0.0472

Sequence	PBM 8-mer E-score
ATTTCGTA	0.122
AAAGTTAA	0.353
CTGCCGCC	-0.273
GTTGCCTA	0.0602
CAAGTTGA	0.0252
GACCATCA	-0.146
ATTGTGTC	0.157
CAATTCTC	-0.0483
GATCTCGC	-0.0777
AAGTAAGT	0.309
AACGGCAG	-0.19
ACTTATAC	0.326
GAGCGCTC	-0.125
ATACCGCG	0.0191
ATTTATTG	0.379
ATAGAAAG	0.197
GTTGGACA	-0.106
AGTCGGAC	-0.0474
TACTATGA	0.161
CGTACCTC	-0.255
ATTCGGCG	-0.0422
AGGCGTAT	-0.0751
AAATGAGC	-0.015
ATATCCAC	0.232
ACATGGGG	-0.0776

Sequence	PBM 8-mer E-score
CCCGGCGG	-0.27
CGTCGTCC	-0.148
GCTAACAC	-0.0487
CAACGCAA	0.077
GGCGAACA	-0.017
AGCCTCCT	-0.31
ACCCTAGG	-0.173
AATGGCTA	0.0987
CCCATAAG	-0.0126
AGGCGAGC	-0.246
CACCGACG	-0.227
GTTAGCAA	0.0716
GGGTATGA	0.0144
CCAAAAGA	-0.187
CCAACCGG	-0.224
AGTTCCTC	-0.0593
TGGACCAA	-0.127
ATAGACAC	0.0711
CACCATCC	-0.0843
